Target: Flag-tagged extracellular domain of the membrane-bound CTLA-4 (Flag-memCTLA-4-ECD) (human) (UniProt P16410)
Assay: Western blot after SDS-PAGE under non-reducing and reducing conditions; 10 ng of Flag-memCTLA-4-ECD or Flag-sCTLA-4

- stoichiometry N: 2
Substance: Flag-tagged extracellular domain of the membrane-bound CTLA-4 (Flag-memCTLA-4-ECD) (a stretch of the chain, chain not printed) (domain or fragment; other documents disagree on this pair)

Reference: publication PMC6502797
